Experimental data published in PubChem BioAssay AID624296 (National Center for Advancing Translational Sciences (NCATS), 2012).
Several values for one entry are separate records, joined by “and”; a condition that tells them apart may be missing. Equal values may be shown once. Out of some 350,000 compounds screened, about 9,900 (2.8%) were called active. This list was built around the results that the source calls inconclusive (neither active nor inactive); the mix of calls is not that of the screen. The call rests on the fitted dose curve; in most records, active means well fitted activation curve with a large enough effect; inconclusive means small, poorly fitted or top-dose-only effect; inactive means no such curve, though single readings can be large or run the other way. A potency beside an inconclusive call is a rough fit, not a confirmed value.

Assay: A quantitative high throughput screen for small molecules that induce DNA re-replication in MCF 10a normal breast cells. Further: nearly all actives have a fitted effect of over 50% in size.
Details: MCF 10A DNA re-replication, Hoechst nuclear intensity, 48 h; series mostly up to 46.1 µM
Potency means the concentration at half of the fitted maximal effect; tags describe the fitted curve by direction and shape.

Compound | Potency
O=C(CSc1nnc(-c2cccnc2)n1-c1ccccc1)Nc1ccccn1 | inconclusive: 29.1 µM [activator, single point]
O=C(Nc1ccc(CN2CCOCC2)cc1)c1ccc2ccccc2c1 | inconclusive: 18.4 µM [activator, partial curve, poor fit]
COc1ccc(OC)c(/C=C2\SC(N3CCCCC3)=NC2=O)c1 | inconclusive: 20.6 µM [activator, single point]
COc1cnn(-c2ccccc2)c(=O)c1N(C)C | inactive
COc1ccc(C(C)=O)cc1CSc1ccc2c(c1)OCCO2 | inactive
O=S(=O)(c1ccc(F)cc1)c1snnc1-c1ccccc1 | active: 7.31 µM
Cc1ccc(-c2csc(NC(=O)c3c(C)noc3C)n2)cc1 | inconclusive: 29.1 µM [activator, single point]
CC1CCN(CCCNc2cc(NCCO)c([N+](=O)[O-])c3nonc23)CC1 | inactive
COc1ccc(-n2nnnc2-c2nc3ccccc3s2)cc1 | inconclusive: 0.259 µM [activator, full curve, poor fit]
NC(=O)c1ccsc1NC(=O)COC(=O)c1ccccn1 | inactive
CN(CC(=O)Nc1cccc(F)c1)C(=O)CCNC(=O)c1ccco1 | inconclusive: 29.1 µM [activator, single point]
N#CCn1cnc2sc(-c3ccccc3)cc2c1=O | inconclusive: 14.1 µM [activator, single point]
CCc1cc(-c2ccc3c(c2)COc2c4ccccc4nn2-3)on1 | inconclusive: 23.1 µM [activator, single point]
CCCSc1nc(C)c2cc(C)cc(C)c2n1 | inactive
CCc1nnc(NS(=O)(=O)c2ccc(NC(=O)c3cccc(Cl)c3)cc2)s1 | inconclusive: 25.9 µM [activator, partial curve, poor fit]
C[C@@H](O)[C@@H]1C(=O)N2C(C(=O)O)=C([C@H]3CCCO3)S[C@H]12 | inactive
CCOC(=O)c1cnc2ccc(C)cc2c1Sc1ccccc1C(=O)OC | inconclusive: 23.1 µM [activator, single point]
O=C(Cc1ccc(Cl)cc1)Nc1ccc(-c2cc3ccccc3oc2=O)c(Cl)c1 | active: 2.31 µM
COc1ccc(/C=C/C(=O)O)cc1 | inactive and inconclusive: 73.1 nM [activator, full curve, poor fit]
CC(C)c1cccc(C(C)C)c1NC(=S)Nc1cccc(Cl)c1 | inconclusive: 5.17 µM [activator, single point]
COc1ccc(NC(=O)CN2CCN(CC(=O)Nc3ccccc3Cl)CC2)cc1Cl | inactive
CCNC(=O)CSc1nnc(-c2ccccc2Br)n1-c1cccc(C(F)(F)F)c1 | inactive
COCCNC(=S)N1CCN(c2nc(-c3ccc(Cl)cc3)cs2)CC1 | inconclusive: 23.1 µM [activator, partial curve, poor fit]
S=C(NCc1ccc(Cl)cc1Cl)Nc1ccccc1 | inconclusive: 25.9 µM [activator, single point]
Cc1ccc(NC(=S)NCc2cccn2C)cc1 | inactive

Compound | Potency
CCOC(=O)c1ccc(-n2ncc(C(=O)OCC)c2N)cc1 | inconclusive: 29.1 µM [activator, partial curve, poor fit]
Cc1ccc(C(=O)N/C(=C\c2ccc(-c3ccc(Cl)cc3)o2)C(=O)NCCCN(C)C)cc1 | inconclusive: 23.1 µM [activator, single point]
Cc1ccc2c(c1)c(C)c(C)n2CC(O)Cn1nnc2ccccc21 (centres undefined) | inconclusive: 11.6 µM [activator, partial curve, poor fit]
COCCCNC(=S)N1CCC(C(=O)c2ccc3c(c2)OCCO3)CC1 | inactive
Brc1cc(Br)c2nc(-c3ccc(N4CCOCC4)cc3)ccc2c1 | active: 9.2 µM
CN(CC(=O)OCC(=O)NCc1ccccc1)S(=O)(=O)c1ccc(F)cc1 | inactive
Cn1c(-c2ccccc2)c(C=O)c2ccccc21 | inactive
CC(C)C[C@H](NC(=O)c1[nH]cnc1C(=O)Nc1ccc(CNC(=O)OC(C)(C)C)cc1)C(=O)OC(C)(C)C | inconclusive: 16.4 µM [activator, single point]
O=C(Cc1ccc(N2CCNC2=O)cc1)N1CCCC(Nc2ccc(F)c(F)c2)C1 (centres undefined) | inconclusive: 4.11 µM [activator, full curve]
Cc1ccc(S(=O)(=O)c2c(N)n(Cc3ccco3)c3nc4ccccc4nc23)cc1C | active: 14.6 µM
CC(C)(C)n1nnnc1CN(Cc1ccc(F)cc1)Cc1ccco1 | inactive
COc1ccccc1NC(=O)C(=O)Nc1ccccn1 | inactive
Cc1cccc(C(=O)N2CCC(=O)N(C(COCc3ccccc3)Cc3ccccc3)CC2)c1 (centres undefined) | inconclusive: 29.1 µM [activator, single point]
CC1CCN(C(=O)CCC(=O)Nc2nnc(C3CCCCC3)s2)CC1 | inconclusive: 5.8 µM [activator, partial curve, poor fit]
Cc1ccc(NC(=O)CN2c3cccc4cccc(c34)S2(=O)=O)cc1 | inconclusive: 11.6 µM [activator, partial curve, poor fit]
CC(C)c1ccc(NC(=O)[C@H](NC(=O)[C@@H]2Cc3ccccc3CN2)c2ccccc2)cc1 | active: 20.6 µM
COc1ccc(COC(=O)C2=C(C)NC(=O)NC2c2cc(OC)ccc2OC)cc1 (centres undefined) | active: 0.517 µM
COc1ccc(/C=C/C(=O)c2cc3cccc(OC)c3oc2=O)cc1 | inconclusive: 20.6 µM [activator, single point]
CC(C=NNc1ccc([N+](=O)[O-])cn1)=Cc1ccccc1 | inactive
Cc1cc(NS(=O)(=O)c2cn(C)nc2C)no1 | inactive
COCCn1c(SCC(=O)Nc2ccccc2OC)nc2c([nH]c3ccccc32)c1=O | inconclusive: 18.4 µM [activator, single point]
COc1cccc(CNC(=O)C2CCC(CNc3nc(=S)[nH]c4ccccc34)CC2)c1 (centres undefined) | inconclusive: 4.11 µM [activator, full curve, poor fit]
Cc1ccc2c(c1)/C(=C/c1ccccc1)C(=O)N2 | inconclusive: 18.4 µM [activator, single point]
COC(=O)[C@@H]1C[C@@H]2CC[C@@H](O)C[C@@H]2N1Cc1ccccc1OS(=O)(=O)c1ccc(C)cc1 | inactive
C=C(C)COc1ccc2oc(C)c(C(=O)OCCOC)c2c1 | inactive

Compound | Potency
Cc1ccc(O)c(C(=O)c2cc(C#N)c(=O)n(-c3nccs3)c2)c1 | active: 11.6 µM
CC(=O)c1cccc(NC(=S)NCCc2ccc(Cl)cc2)c1 | inactive
O=C(Nc1ccc2oc(-c3cccnc3)nc2c1)c1cc2ccccc2o1 | inactive
NC(=O)/C=C\c1cn(-c2ccccc2)nc1-c1ccc2c(c1)OCCO2 | inconclusive: 32.6 µM [activator, partial curve, poor fit]
O=C(Nc1ccc(S(=O)(=O)NCc2ccccc2)cc1)C1CCCCC1 | inactive
Cc1c(Br)c([N+](=O)[O-])nn1CC(=O)NC1CCCCCC1 | inactive
CCn1c(SCC(=O)Nc2ccc(C(C)=O)cc2)nc2ccccc21 | inconclusive: 20.6 µM [activator, partial curve, poor fit]
O=C(C[C@@H]1C/C=C\C[C@H](Cc2ccc(F)cc2)C(=O)OC[C@@H]2CCCN2C1=O)N[C@H](CO)Cc1ccccc1 | inconclusive: 0.82 µM [activator, full curve, poor fit]
CCN(C(=O)c1ccco1)c1nnc(-c2ccc(OC)cc2)s1 | inconclusive: 29.1 µM [activator, single point]
Cn1cccc1C(=O)NC(=O)COC(=O)c1ccc(S(C)(=O)=O)c([N+](=O)[O-])c1 | active: 5.8 µM
CCC(NC(=O)OCc1ccccc1)C(=O)Oc1ccc2ccc(=O)oc2c1 (centres undefined) | inconclusive: 11.6 µM [activator, partial curve]
COc1ccc(CN2CC(=O)N3[C@H]4c5ccc(OC)cc5OC[C@@H]4[C@H](c4ccccc4)[C@]3(C)C2=O)cc1 | inconclusive: 32.6 µM [activator, single point]
Cc1ccc(-c2c(C#N)c(N)nc3c2CCCCCC3)o1 | inactive
CSCc1c(C(=O)N2CCCc3ccccc32)oc2ccccc12 | inconclusive: 18.4 µM [activator, single point]
Cc1cc(C(=O)CCl)c(C)n1CCc1ccccc1 | inactive
CCCCCCC(=O)N(O)C1CC(=O)N(c2ccc(C)cc2)C1=O (centres undefined) | inconclusive: 25.9 µM [activator, single point]
O=S(=O)(c1cccs1)N1CCCc2ccccc21 | inactive
CCCc1cc(C(=O)NCC(C)C)no1 | inconclusive: 7.31 µM [activator, partial curve, poor fit]
COc1ccc(/C=N/NC(=O)c2cc3c(OC)ccc(OC)c3[nH]2)cc1O | inconclusive: 0.517 µM [activator, full curve, poor fit]
COc1ccc(OCCCC(=O)OCC(=O)N2CCN(S(=O)(=O)c3ccc(C)cc3C)CC2)cc1 | inactive
O=C(NCCCn1ccnc1)C(=O)NCC(c1ccco1)N1CCN(c2ccc(F)cc2)CC1 (centres undefined) | inconclusive: 20.6 µM [activator, partial curve]
CCCCCCCCOc1ccccc1C(=O)Nc1ccc(C(=O)OCC[N+](C)(CC)CC)cc1 | active: 26.6 µM
O=C(Nc1ccccc1N1CCOCC1)C1CCCO1 (centres undefined) | inactive
CCSC1(SCC)N=C(N)C2(C#N)C(c3ccccc3)NC(C)=C(C)C12C#N (centres undefined) | inactive
